# Positions count from the first letter of the chain named. Some of the results follow.
# T1: UNK ZnF1-3 (human, UniProt Q9C0B0 31-174)
# T1 sequence: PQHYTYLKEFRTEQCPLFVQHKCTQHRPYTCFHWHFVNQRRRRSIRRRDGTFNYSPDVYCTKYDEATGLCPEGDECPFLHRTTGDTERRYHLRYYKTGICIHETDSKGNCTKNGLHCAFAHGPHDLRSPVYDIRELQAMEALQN
# B1: 77635040_77672404_243_CDS_ENSG00000142892_ENST00000370812|human|control|control (ssRNA)
# RNA: GGGAGUUCUACAGUCCGACGAUCAUUACAGGCCAUAUCAUCUGCAAGCAUUAGGACAAUGUGACUGUCAGGAAUACCUAGCCUCUUGACACUUCUAUAAACAGAAAGGGUAUUUGCAACAUGUCGAUAAUUAAACCAGAAUCGCAACAGAGGAUUGAGCAUCA
# B2: chr9:100883651:100883652:-_ENSG00000106789_ENST00000375077|hu_hu|FALSE|FALSE (ssRNA)
# RNA: GGGAGUUCUACAGUCCGACGAUCGGGUAUGGAAUAAGGAGAUGAGAGCAUGCUCUGCCAACUGGCUGGGACCUGAAUGUGCUAGGCAAGUUCCACUACAUCAGCUCAAGAACAUAAACAAAAAUGUAAUUUAAAAAACAGAUGCAACAGAGGAUUGAGCAUCA
# B3: 32062031_32064210_2217_CDS_ENSMUSG00000039262_ENSMUST00000036691|mouse|control|control (ssRNA)
# RNA: GGGAGUUCUACAGUCCGACGAUCAGAAGGUGGGGGGUAGACCGGCUGCCAGUGCUGCAUCUUGUACAGCUGCUCCUGCUGCUGCUGCUGCUGCUGUUGCUGCUGUUGCUGCUGCUGCUGGCGCUGGAAACGGGGAGGAAGGGACAACAGAGGAUUGAGCAUCA
# B4: 45960315_45960516_619_CDS_ENSMUSG00000021832_ENSMUST00000022380|mouse|control|control (ssRNA)
# RNA: GGGAGUUCUACAGUCCGACGAUCAUUAAACAUUUCUCUAAUCAAACGAGCACUUUCACCAAUGUACUUGUCUACAAUAGAACUAGAUACAACCUUUAGGAAGUUGCAGUCCAGCUGGCUGGCAACAGCUCGUGCCAAGAGUGUCAACAGAGGAUUGAGCAUCA
# B5: chr22:32879901:32879902:+_ENSG00000100225_ENST00000397426|hu_mus|hu_hu_hu_mus_False|18_18 (ssRNA)
# RNA: GGGAGUUCUACAGUCCGACGAUCCUCUUCCAUACUCAUGGCAUCCUGAAUUGACUCAGCUUCAACAUUUUGACUAGGCCCUUCCAUACUGUCAUCAGUCCAGGCAUCAAAUGGGGUUGCCUGUCCUUGGGAUGAAUCAGUCCCCAACAGAGGAUUGAGCAUCA
# B6: chr3:45751083:45751084:+_ENSG00000211456_ENST00000389061|hu_mus|FALSE|FALSE (ssRNA)
# RNA: GGGAGUUCUACAGUCCGACGAUCCCAUACAAACCGCUGAUCUGCCCUUUCUAAGAGACUCAUUUCUUGGAAUUCUGGACUCGUGUUAGAUAGUCGCUGCAAAGUAUGAGUCAAGUCAUAUGUUGUUGAAAAGUAAAAUCCAUCCAACAGAGGAUUGAGCAUCA
# B7: chr3:9412954:9412955:+_ENSG00000134077_ENST00000452837|hu_mus|hu_hu_hu_mus_False|8_8 (ssRNA)
# RNA: GGGAGUUCUACAGUCCGACGAUCGGUUGAUAUCUCUUCUUUGAUGGCUGGAUUUUCAUAAUAGUCCAAGAUAUGUGAAUCUGAAGUGCUGCUGGCAUGCUUUUUCUUACCAUCUUUCUCAUCUGCUUUGACUUCUUGUCCACACAACAGAGGAUUGAGCAUCA
# B8: 88725732_88725852_108_5pUTR_ENSMUSG00000018428_ENSMUST00000018572|mouse|control|control (ssRNA)
# RNA: GGGAGUUCUACAGUCCGACGAUCGCACUCAAUCCUCCCGCCACCGCCCCCUGGCCCCCCACCUAGUCCAGCGGCCCUGCCCCGCAGCGCUGCACGGCGCUUCGGCCGCUCCCCCACGUGCUAGCCCAGGCCGGGCGAACACAGCAACAGAGGAUUGAGCAUCA
# B9: chr7:66532262:66532263:+_ENSMUSG00000025326_ENSMUST00000107537|mus_hu|FALSE|FALSE (ssRNA)
# RNA: GGGAGUUCUACAGUCCGACGAUCUCCUUGAACUAAGCUGUAGAGAACAGUGAUUCUUCGUUCACUGUACAUGCGAAUUCUAUUGUCAUAAUAUAAUCCCAAAUUCUUUGUGACAGCAUUCAAUAUAAAGGGACAUGUCAUAAACAACAGAGGAUUGAGCAUCA
# B10: chr10:57206289:57206290:+_ENSMUSG00000019878_ENSMUST00000079833|mus_hu|FALSE|FALSE (ssRNA)
# RNA: GGGAGUUCUACAGUCCGACGAUCGCCGGCACGUUCGAACUCUGCUUCAUUGUUAACGCGGCGCAGGGAUUCCAAAUUCUACACCCGAACGCGGUGGUAGCGGCGGCGGCAGCUACGGCAGCAGCUCCCCGAGAACGCCCACAACAACAGAGGAUUGAGCAUCA
# B11: chr3:9412954:9412955:+_ENSG00000134077_ENST00000452837|hu_mus|hu_hu_hu_mus_False|1_1 (ssRNA)
# RNA: B7 RNA with A130U, U133C, C142U, A143U
# B12: chr3:95749504:95749505:+_ENSMUSG00000015749_ENSMUST00000165307|mus_mus|FALSE|FALSE (ssRNA)
# RNA: GGGAGUUCUACAGUCCGACGAUCAGUGUAAUUGGUUAAUUUAUAAAUAACUUUAAAACACUAUGAAUGAAAUGCACCAAACUACACCUGUGUAAAAGCAACAAUGUUUUAAUUAUGGGCUAAAAAUGUCUAAUACAUUAAGCACAACAGAGGAUUGAGCAUCA
# B13: chr4:140556289:140556290:+_ENSMUSG00000036622_ENSMUST00000037055|mus_mus|mus_mus_mus_hu_False|38_38 (ssRNA)
# RNA: GGGAGUUCUACAGUCCGACGAUCGAUGGAGCUCACCAGGCCCCCUUUUGCCGUGCAGAACCCUGUGCGGGUCACCACUGCCAGGACGUGCGGUCCCACGUAGGCUCGGGCCUGCAAGAUGAGGGUCCCGCAGAAGAGUGUGUGCAACAGAGGAUUGAGCAUCA
# B14: 26416299_26417017_938_CDS_ENSMUSG00000024188_ENSMUST00000114976|mouse|control|control (ssRNA)
# RNA: GGGAGUUCUACAGUCCGACGAUCGGAACGGCUGCGAUGGCGCCUGUAUCUAUCUCGGGAUCUGGAACGGGAAAACUUCCGCCGCUCUCUGGAGGUAGACCUAGACCGCCUCCGUCGACGAUCCCGGGAGCGUGACCUUCUGCGCAACAGAGGAUUGAGCAUCA
# B15: chr11:46405157:46405158:+_ENSG00000110492_ENST00000395566|hu_hu|hu_hu_hu_mus_False|28_28 (ssRNA)
# RNA: GGGAGUUCUACAGUCCGACGAUCCCCUCCCCACUUUGGGCACUUGGUGUGGGCGUGAGAGGACAGGCGUGAUUGACAGAGCUGACAGGAAGACAAAAGGCACUGGUGGGUCACAUCUUGGGCCUGUGGGAGAGGAGGGCUCCGCAACAGAGGAUUGAGCAUCA
# B16: 60767377_60767590_4158_CDS_ENSG00000011028_ENST00000303375|human|control|control (ssRNA)
# RNA: GGGAGUUCUACAGUCCGACGAUCGGGAAUCCACGCGGAGUCUGCCAGUCCCUGGGGACAGCUGCCAUGGUAGCUUAUUCUUCGGGGAGGAGGGGGCCCACUGCUAACCCCACACACAGCCCCCUGCAGCUUGGUGUCACAGCUCAACAGAGGAUUGAGCAUCA
# B17: chr7:151048522:151048523:+_ENSG00000013374_ENST00000566856|hu_mus|hu_hu_hu_mus_True|18_58 (ssRNA)
# RNA: GGGAGUUCUACAGUCCGACGAUCCUGUUUCUUAUUUAUUACGAUCUUGAUGUAAUUUUCUUGAAAUCCGAAAGUUUCAGCUAUUUUACACCUCAGGUCUCUACCAGUGACAUGCAAUCGGGUCUCCAACAAGCUUUUCUUAUCCAACAGAGGAUUGAGCAUCA
# B18: 205066520_205068233_1181_3pUTR_ENSG00000117222_ENST00000264515|human|control|control (ssRNA)
# RNA: GGGAGUUCUACAGUCCGACGAUCCCCCUGUCUGCUCAGGCUCACUCUUAUCUUCAUCUUCAAUAUCAAACUCUGAUUCCCUUUCUUCGUAUUCUACAUUUUCAUCCAAUUCUUUGAAGUCUGGUGCAAAUGCACUCCAGUUUUCAACAGAGGAUUGAGCAUCA
# B19: chr2:224824363:224824364:+_ENSG00000135900_ENST00000258383|hu_hu|motif|central (ssRNA)
# RNA: GGGAGUUCUACAGUCCGACGAUCAGCUUCUUUCUCUAUCCCAAGUUGUUGGCGUUUGGCCUCCUCACUUUUAAUAUAGCAGCGGUUAACAAAUGCAGUUUUGAGAAGAUCUAAGGAAAAGUUUUCCUGUAACCGAUGUCCAAACAACAGAGGAUUGAGCAUCA
# B20: chr14:78183846:78183847:+_ENSG00000119705_ENST00000557342|hu_hu|hu_hu_hu_mus_False|1_88 (ssRNA)
# RNA: GGGAGUUCUACAGUCCGACGAUCUCUCAGAAAUCUUUCUUCAUCAGCAUCAUCAGAUCCGUGCAAAGCCUUUGCUCUUUGAGCUUGAACGUGGAUCUAUGGGAGGGAAAGCACUGUCAGAAAAGGUAAUUUUUUUUUCCGAAGCAACAGAGGAUUGAGCAUCA
# B21: chr7:31081878:31081879:+_ENSMUSG00000013921_ENSMUST00000014065|mus_mus|FALSE|FALSE (ssRNA)
# RNA: GGGAGUUCUACAGUCCGACGAUCGAUGGUGGUCUUCGGGUCAAACAGAAUUUCCUGGCACGCAGGGUCAUUGGGAUCGAAGAAGGUAAAAGCGUAGUCUUUGGGGAGCGGAGCAGGUGCUGAGGGGUGCACAACUGGCUUCUGCAACAGAGGAUUGAGCAUCA
# B22: chr2:198351390:198351391:-_ENSG00000144381_ENST00000345042|hu_hu|hu_hu_hu_mus_False|28_28 (ssRNA)
# RNA: GGGAGUUCUACAGUCCGACGAUCUCAUUCCCACCCUCCACAGAAAGGCUGCUUCUGAACUCUCAUGUGGUGACACAGCGCUACAGUCCUGAUGCUCACAGAACAGUAGUAAAAAUGCAGUGAUUUAAGUUGAAAGCAGGACACCAACAGAGGAUUGAGCAUCA
# Biological target: T1, UNK ZnF1-3
# Assay: nsRBNS (natural sequence RNA bind-n-seq); RBNS binding buffer (assumed for nsRBNS): 25 mM Tris pH 7.5, 150 mM KCl, 3 mM MgCl2, 0.01% Triton X-100, 500 ug/ml BSA, 20 U/ml SUPERase-In, 4 C; UNK is unkempt and MSI1 is Musashi-1; names of the RNAs are library labels; protein concentration not given here; high values mean tight binding
row,Binder,binding signal [enrichment R]
1,B1,1.32
2,B2,2.85
3,B3,0.769
4,B4,0.427
5,B5,0.936
6,B6,1.03
7,B7,0.278
8,B8,1.02
9,B9,0.489
10,B10,0.88
11,B11,0.377
12,B12,1.2
13,B13,0.882
14,B14,0.506
15,B15,2.49
16,B16,0.794
17,B17,0.65
18,B18,0.497
19,B19,0.992
20,B20,1.4
21,B21,1.65
22,B22,1.54

# Reference: publication PMC12136788
